# Measured values reported in the supplement of paper PMC8728848.
# The list shows a part of the results.
# B1: LngA (Escherichia coli) (protein)
# chain: MLSVYNRTQKFKAEARKKIAKYHELRKQRGMSLLEVIIVLGIIGTIAAGVVILAQRAFDSRAVTDLVTNTNTVRVRMKDAYQRDGKYPDFVDPLSLTANTIKTDTSGIPAAQLVQLGKITPDEVRNNISGDFIAIGGALTSNGAQVKKGFAIELNGLSQEQCRSILGQVGNNWEYVAIGTSASGSYAMTATGVDMSVAASTTVLRSLGNNGQTTLTADKILSTCTAQVNSITLGSR
# Assays:
# Assay in all cases: glycan array binding signal (z-score within array); higher = stronger binding
# Settings in all cases: glycan notation: IUPAC condensed, linker removed
# Neu5Ac(a2-8)Neu5Ac = target: Neu5Ac(a2-8)Neu5Ac
# Summary of the method: (§1)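 The binding signal is a Z-score computed within each array. Data were drawn from 3228 arrays in the Consortium for Functional Glycomics database, restricted to those with a known protein sequence. Scores were averaged over arrays of the same protein sequence at different concentrations or buffers, and over linkers, and negative values can be taken as non-binding.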
# [1] = target: Neu5Ac(a2-8)Neu5Ac(a2-3)Gal(b1-3)GalNAc(b1-4)[Neu5Ac(a2-3)]Gal(b1-4)Glc
# Summary of the method: as §1
# [2] = target: Neu5Ac(a2-8)Neu5Ac(a2-3)Gal(b1-3)GalNAc(b1-4)[Neu5Ac(a2-8)Neu5Ac(a2-3)]Gal(b1-4)Glc
# Summary of the method: as §1
# [3] = target: Neu5Ac(a2-8)Neu5Ac(a2-3)Gal(b1-4)Glc
# Summary of the method: as §1
# [4] = target: Neu5Ac(a2-8)Neu5Ac(a2-3)Gal(b1-4)GlcNAc
# Summary of the method: as §1
# [5] = target: Neu5Ac(a2-8)Neu5Ac(a2-3)[Gal(b1-3)GalNAc(b1-4)]Gal(b1-4)Glc
# Summary of the method: as §1
# [6] = target: Neu5Ac(a2-8)Neu5Ac(a2-3)[GalNAc(b1-4)]Gal(b1-4)Glc
# Summary of the method: as §1
# [7] = target: Neu5Ac(a2-8)Neu5Ac(a2-8)Neu5Ac
# Summary of the method: as §1
# [8] = target: Neu5Ac(a2-8)Neu5Ac(a2-8)Neu5Ac(a2-3)Gal(b1-4)Glc
# Summary of the method: as §1
# [9] = target: Neu5Ac(a2-8)Neu5Ac(a2-8)Neu5Ac(a2-3)[Gal(b1-3)GalNAc(b1-4)]Gal(b1-4)Glc
# Summary of the method: as §1
# [10] = target: Neu5Ac(a2-8)Neu5Ac(a2-8)Neu5Ac(a2-3)[GalNAc(b1-4)]Gal(b1-4)Glc
# Summary of the method: as §1
# [11] = target: Neu5Ac(a2-8)Neu5Ac(a2-8)Neu5Ac(a2-8)Neu5Ac(a2-3)[GalNAc(b1-4)]Gal(b1-4)Glc
# Summary of the method: as §1
# [12] = target: Neu5Ac(a2-8)Neu5Gc(a2-3)Gal(b1-4)GlcNAc
# Summary of the method: as §1
# [13] = target: Neu5Ac(b2-6)Gal(b1-4)GlcNAc
# Summary of the method: as §1
# Neu5Ac(b2-6)GalNAc = target: Neu5Ac(b2-6)GalNAc
# Summary of the method: as §1
# [14] = target: Neu5Ac9Ac(a2-3)Gal(b1-3)GlcNAc
# Summary of the method: as §1
# [15] = target: Neu5Ac9Ac(a2-3)Gal(b1-4)GlcNAc
# Summary of the method: as §1
# [16] = target: Neu5Ac9Ac(a2-6)Gal(b1-4)GlcNAc
# Summary of the method: as §1
# [17] = target: Neu5Gc(a2-3)Gal(b1-3)GlcNAc
# Summary of the method: as §1
# [18] = target: Neu5Gc(a2-3)Gal(b1-3)[Fuc(a1-4)]GlcNAc
# Summary of the method: as §1
# Neu5Gc(a2-3)Gal(b1-4)Glc = target: Neu5Gc(a2-3)Gal(b1-4)Glc
# Summary of the method: as §1
# [19] = target: Neu5Gc(a2-3)Gal(b1-4)GlcNAc
# Summary of the method: as §1
# [20] = target: Neu5Gc(a2-3)Gal(b1-4)GlcNAc(b1-3)Gal(b1-4)GlcNAc(b1-2)Man(a1-3)[Neu5Gc(a2-3)Gal(b1-4)GlcNAc(b1-3)Gal(b1-4)GlcNAc(b1-2)Man(a1-6)]Man(b1-4)GlcNAc(b1-4)GlcNAc
# Summary of the method: as §1
# [21] = target: Neu5Gc(a2-3)Gal(b1-4)[Fuc(a1-3)]GlcNAc
# Summary of the method: as §1
# [22] = target: Neu5Gc(a2-6)Gal(b1-4)GlcNAc
# Summary of the method: as §1
# Neu5Gc(a2-6)GalNAc = target: Neu5Gc(a2-6)GalNAc
# Summary of the method: as §1
# [23] = target: Neu5Gc(a2-8)Neu5Ac(a2-3)Gal(b1-4)GlcNAc
# Summary of the method: as §1
# [24] = target: Neu5Gc(a2-8)Neu5Gc(a2-3)Gal(b1-4)GlcNAc
# Summary of the method: as §1
# [25] = target: Neu5Gc(a2-8)Neu5Gc(a2-3)Gal(b1-4)GlcNAc(b1-3)Gal(b1-4)GlcNAc
# Summary of the method: as §1
# [26] = target: Neu5Gc(a2-8)Neu5Gc(a2-6)Gal(b1-4)GlcNAc
# Summary of the method: as §1
# [27] = target: Neu5Gc(b2-6)Gal(b1-4)GlcNAc
# Summary of the method: as §1
binder,measurement,setting,value
B1,glycan array binding signal (z-score),Neu5Ac(a2-8)Neu5Ac,0.85
same,glycan array binding signal (z-score),[1],-0.298
same,glycan array binding signal (z-score),[2],-0.457
same,glycan array binding signal (z-score),[3],-0.552
same,glycan array binding signal (z-score),[4],-0.195
same,glycan array binding signal (z-score),[5],-0.312
same,glycan array binding signal (z-score),[6],-0.442
same,glycan array binding signal (z-score),[7],-0.301
same,glycan array binding signal (z-score),[8],0.154
same,glycan array binding signal (z-score),[9],-0.06
same,glycan array binding signal (z-score),[10],-0.455
same,glycan array binding signal (z-score),[11],-0.391
same,glycan array binding signal (z-score),[12],-0.319
same,glycan array binding signal (z-score),[13],-0.5
same,glycan array binding signal (z-score),Neu5Ac(b2-6)GalNAc,-0.582
same,glycan array binding signal (z-score),[14],2.04
same,glycan array binding signal (z-score),[15],-0.433
same,glycan array binding signal (z-score),[16],-0.378
same,glycan array binding signal (z-score),[17],-0.438
same,glycan array binding signal (z-score),[18],-0.476
same,glycan array binding signal (z-score),Neu5Gc(a2-3)Gal(b1-4)Glc,-0.423
same,glycan array binding signal (z-score),[19],-0.48
same,glycan array binding signal (z-score),[20],-0.288
same,glycan array binding signal (z-score),[21],-0.145
same,glycan array binding signal (z-score),[22],-0.433
same,glycan array binding signal (z-score),Neu5Gc(a2-6)GalNAc,-0.32
same,glycan array binding signal (z-score),[23],-0.561
same,glycan array binding signal (z-score),[24],-0.576
same,glycan array binding signal (z-score),[25],-0.545
same,glycan array binding signal (z-score),[26],-0.363
same,glycan array binding signal (z-score),[27],-0.329
